# Source: the supplement of paper PMC8728848
# The list shows a part of the results.
# B1: Cohesin-hDC-ASGPR (Homo sapiens) (protein)
# chain: LDDLDAVRIKVDTVNAKPGDTVRIPVRFSGIPSKGIANCDFVYSYDPNVLEIIEIEPGDIIVDPNPDKSFDTAVYPDRKIIVFLFAEDSGTGAYAITKDGVFATIVAKVKEGAPNGLSVIKFVEVGGFANNDLVEQKTQFFDGGANVGDTTEPATPTTPVTTPTTTDDLDAASQNSKFQRDLVTLRTDFSNFTSNTVAEIQALTSQGSSLEETIASLKAEVEGFKQERQAGVSELQEHTTQKAHLGHCPHCPSVCVPVHSEMLLRVQQLVQDLKKLTCQVATLNNNASTEGTCCPVNWVEHQDSCYWFSHSGMSWAEAEKYCQLKNAHLVVINSREEQNFVQKYLGSAYTWMGLSDPEGAWKWVDGTDYATGFQNWKPGQPDDWQGHGLGGGEDCAHFHPDGRWNDDVCQRPYHWVCEAGLGQTSQESHHHHHH
# Experiments:
# Assay in all cases: glycan array binding signal (z-score within array); higher = stronger binding
# Details in all cases: glycan notation: IUPAC condensed, linker removed
# [1] = biological target: Neu5Ac(a2-3)Gal(b1-3)GalNAc
# In short: (§1)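 Glycan array data came from 3228 arrays in the Consortium for Functional Glycomics database, and only arrays with an available protein sequence were kept. Glycan names were put into IUPAC-condensed notation, and columns mapping to the same glycan were averaged. The binding signal is a within-array Z-score, averaged across arrays of one protein sequence run at different concentrations or buffers and across linkers. A negative Z-score can be read as non-binding.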
# [2] = biological target: Neu5Ac(a2-3)Gal(b1-3)GalNAc(b1-3)Gal(a1-4)Gal(b1-4)Glc
# In short: as §1
# [3] = biological target: Neu5Ac(a2-3)Gal(b1-3)GalNAc(b1-4)[Neu5Ac(a2-3)]Gal(b1-4)Glc
# In short: as §1
# [4] = biological target: Neu5Ac(a2-3)Gal(b1-3)GalNAc(b1-4)[Neu5Ac(a2-8)Neu5Ac(a2-3)]Gal(b1-4)Glc
# In short: as §1
# [5] = biological target: Neu5Ac(a2-3)Gal(b1-3)GalNAc6S
# In short: as §1
# [6] = biological target: Neu5Ac(a2-3)Gal(b1-3)GlcNAc
# In short: as §1
# [7] = biological target: Neu5Ac(a2-3)Gal(b1-3)GlcNAc(b1-2)Man
# In short: as §1
# [8] = biological target: Neu5Ac(a2-3)Gal(b1-3)GlcNAc(b1-2)Man(a1-3)[GlcNAc(b1-4)][Neu5Ac(a2-3)Gal(b1-3)GlcNAc(b1-2)Man(a1-6)]Man(b1-4)GlcNAc(b1-4)GlcNAc
# In short: as §1
# [9] = biological target: Neu5Ac(a2-3)Gal(b1-3)GlcNAc(b1-2)Man(a1-3)[Neu5Ac(a2-3)Gal(b1-3)GlcNAc(b1-2)Man(a1-6)]Man(b1-4)GlcNAc(b1-4)GlcNAc
# In short: as §1
# [10] = biological target: Neu5Ac(a2-3)Gal(b1-3)GlcNAc(b1-3)Gal(b1-3)GlcNAc
# In short: as §1
# [11] = biological target: Neu5Ac(a2-3)Gal(b1-3)GlcNAc(b1-3)Gal(b1-4)GlcNAc
# In short: as §1
# [12] = biological target: Neu5Ac(a2-3)Gal(b1-3)GlcNAc(b1-3)GalNAc
# In short: as §1
# [13] = biological target: Neu5Ac(a2-3)Gal(b1-3)GlcNAc(b1-4)Gal(b1-4)Glc
# In short: as §1
# [14] = biological target: Neu5Ac(a2-3)Gal(b1-3)GlcNAc(b1-6)GalNAc
# In short: as §1
# [15] = biological target: Neu5Ac(a2-3)Gal(b1-3)GlcNAc6S
# In short: as §1
# [16] = biological target: Neu5Ac(a2-3)Gal(b1-3)[Fuc(a1-4)]GlcNAc
# In short: as §1
# [17] = biological target: Neu5Ac(a2-3)Gal(b1-3)[Fuc(a1-4)]GlcNAc(b1-3)Gal(b1-3)[Fuc(a1-4)]GlcNAc
# In short: as §1
# [18] = biological target: Neu5Ac(a2-3)Gal(b1-3)[Fuc(a1-4)]GlcNAc(b1-3)Gal(b1-4)[Fuc(a1-3)]GlcNAc
# In short: as §1
# [19] = biological target: Neu5Ac(a2-3)Gal(b1-3)[GlcNAc(b1-6)]GalNAc
# In short: as §1
# [20] = biological target: Neu5Ac(a2-3)Gal(b1-3)[Neu5Ac(a2-6)]GalNAc
# In short: as §1
# [21] = biological target: Neu5Ac(a2-3)Gal(b1-3)[Neu5Ac(a2-6)]GlcNAc(b1-3)[Fuc(a1-3)[Gal(b1-4)]GlcNAc(b1-6)]Gal(b1-4)Glc
# In short: as §1
# [22] = biological target: Neu5Ac(a2-3)Gal(b1-3)]Neu5Ac(a2-3)Gal(b1-4)]GlcNAc
# In short: as §1
# [23] = biological target: Neu5Ac(a2-3)Gal(b1-4)Glc
# In short: as §1
# [24] = biological target: Neu5Ac(a2-3)Gal(b1-4)GlcNAc
# In short: as §1
# [25] = biological target: Neu5Ac(a2-3)Gal(b1-4)GlcNAc(b1-2)Man
# In short: as §1
# [26] = biological target: Neu5Ac(a2-3)Gal(b1-4)GlcNAc(b1-2)Man(a1-3)[GlcNAc(b1-4)][Neu5Ac(a2-3)Gal(b1-4)GlcNAc(b1-2)Man(a1-6)]Man(b1-4)GlcNAc(b1-4)GlcNAc
# In short: as §1
# [27] = biological target: Neu5Ac(a2-3)Gal(b1-4)GlcNAc(b1-2)Man(a1-3)[Neu5Ac(a2-3)Gal(b1-4)GlcNAc(b1-2)Man(a1-6)]Man(b1-4)GlcNAc(b1-4)GlcNAc
# In short: as §1
# [28] = biological target: Neu5Ac(a2-3)Gal(b1-4)GlcNAc(b1-2)Man(a1-3)[Neu5Ac(a2-3)Gal(b1-4)GlcNAc(b1-2)Man(a1-6)]Man(b1-4)GlcNAc(b1-4)[Fuc(a1-6)]GlcNAc
# In short: as §1
# [29] = biological target: Neu5Ac(a2-3)Gal(b1-4)GlcNAc(b1-2)Man(a1-3)[Neu5Ac(a2-6)Gal(b1-4)GlcNAc(b1-2)Man(a1-6)]Man(b1-4)GlcNAc(b1-4)GlcNAc
# In short: as §1
# [30] = biological target: Neu5Ac(a2-3)Gal(b1-4)GlcNAc(b1-2)[Neu5Ac(a2-3)Gal(b1-4)GlcNAc(b1-4)]Man(a1-3)[GlcNAc(b1-4)][Neu5Ac(a2-3)Gal(b1-4)GlcNAc(b1-2)[Neu5Ac(a2-3)Gal(b1-4)GlcNAc(b1-6)]Man(a1-6)]Man(b1-4)GlcNAc(b1-4)GlcNAc
# In short: as §1
# [31] = biological target: Neu5Ac(a2-3)Gal(b1-4)GlcNAc(b1-2)[Neu5Ac(a2-3)Gal(b1-4)GlcNAc(b1-4)]Man(a1-3)[GlcNAc(b1-4)][Neu5Ac(a2-3)Gal(b1-4)GlcNAc(b1-4)Man(a1-6)]Man(b1-4)GlcNAc(b1-4)GlcNAc
# In short: as §1
# [32] = biological target: Neu5Ac(a2-3)Gal(b1-4)GlcNAc(b1-2)[Neu5Ac(a2-3)Gal(b1-4)GlcNAc(b1-6)]Man(a1-6)[Neu5Ac(a2-3)Gal(b1-4)GlcNAc(b1-2)Man(a1-3)]Man(b1-4)GlcNAc(b1-4)GlcNAc
# In short: as §1
# [33] = biological target: Neu5Ac(a2-3)Gal(b1-4)GlcNAc(b1-2)[Neu5Ac(a2-3)Gal(b1-4)GlcNAc(b1-6)]Man(a1-6)[Neu5Ac(a2-3)Gal(b1-4)GlcNAc(b1-2)Man(a1-3)][GlcNAc(b1-4)]Man(b1-4)GlcNAc(b1-4)GlcNAc
# In short: as §1
# [34] = biological target: Neu5Ac(a2-3)Gal(b1-4)GlcNAc(b1-3)Gal
# In short: as §1
# [35] = biological target: Neu5Ac(a2-3)Gal(b1-4)GlcNAc(b1-3)Gal(b1-3)GlcNAc
# In short: as §1
# [36] = biological target: Neu5Ac(a2-3)Gal(b1-4)GlcNAc(b1-3)Gal(b1-4)GlcNAc
# In short: as §1
# [37] = biological target: Neu5Ac(a2-3)Gal(b1-4)GlcNAc(b1-3)Gal(b1-4)GlcNAc(b1-2)Man(a1-3)[Neu5Ac(a2-3)Gal(b1-4)GlcNAc(b1-3)Gal(b1-4)GlcNAc(b1-2)Man(a1-6)]Man(b1-4)GlcNAc(b1-4)GlcNAc
# In short: as §1
binder,measurement,setting,value
B1,glycan array binding signal (z-score),[1],-0.494
same,glycan array binding signal (z-score),[2],-0.454
same,glycan array binding signal (z-score),[3],-0.404
same,glycan array binding signal (z-score),[4],-0.364
same,glycan array binding signal (z-score),[5],0.47
same,glycan array binding signal (z-score),[6],-0.508
same,glycan array binding signal (z-score),[7],-0.472
same,glycan array binding signal (z-score),[8],-0.478
same,glycan array binding signal (z-score),[9],-0.333
same,glycan array binding signal (z-score),[10],-0.483
same,glycan array binding signal (z-score),[11],-0.511
same,glycan array binding signal (z-score),[12],-0.397
same,glycan array binding signal (z-score),[13],-0.483
same,glycan array binding signal (z-score),[14],2.67
same,glycan array binding signal (z-score),[15],-0.403
same,glycan array binding signal (z-score),[16],-0.462
same,glycan array binding signal (z-score),[17],0.384
same,glycan array binding signal (z-score),[18],-0.098
same,glycan array binding signal (z-score),[19],-0.493
same,glycan array binding signal (z-score),[20],0.82
same,glycan array binding signal (z-score),[21],-0.427
same,glycan array binding signal (z-score),[22],-0.475
same,glycan array binding signal (z-score),[23],-0.471
same,glycan array binding signal (z-score),[24],-0.453
same,glycan array binding signal (z-score),[25],0.681
same,glycan array binding signal (z-score),[26],-0.509
same,glycan array binding signal (z-score),[27],-0.375
same,glycan array binding signal (z-score),[28],-0.509
same,glycan array binding signal (z-score),[29],-0.509
same,glycan array binding signal (z-score),[30],-0.496
same,glycan array binding signal (z-score),[31],-0.496
same,glycan array binding signal (z-score),[32],-0.099
same,glycan array binding signal (z-score),[33],-0.507
same,glycan array binding signal (z-score),[34],-0.514
same,glycan array binding signal (z-score),[35],-0.505
same,glycan array binding signal (z-score),[36],-0.512
same,glycan array binding signal (z-score),[37],-0.194
